Test results reported in the supplement of paper PMC8728848.
Some of the results follow.

What was measured:
Experiment in all cases: glycan array binding signal (z-score within array); higher = stronger binding
Conditions in all cases: glycan notation: IUPAC condensed, linker removed
[1] = target: GlcNAc(b1-2)[GlcNAc(b1-6)]Man(a1-6)[GlcNAc(b1-2)Man(a1-3)]Man(b1-4)GlcNAc(b1-4)GlcNAc
Procedure, shortened: (§1)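 Columns mapping to the same glycan were averaged after glycan names were converted to IUPAC-condensed notation. The data come from 3228 arrays in the Consortium for Functional Glycomics database, limited to those with an available protein sequence. Binding is reported as a within-array Z-score averaged across arrays of one protein sequence and across linkers.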

[2] = target: GlcNAc(b1-2)[GlcNAc(b1-6)]Man(a1-6)[GlcNAc(b1-2)Man(a1-3)]Man(b1-4)GlcNAc(b1-4)[Fuc(a1-6)]GlcNAc
Procedure, shortened: as §1

[3] = target: GlcNAc(b1-2)[GlcNAc(b1-6)]Man(a1-6)[GlcNAc(b1-4)][GlcNAc(b1-2)Man(a1-3)]Man(b1-4)GlcNAc(b1-4)GlcNAc
Procedure, shortened: as §1

GlcNAc(b1-3)Fuc = target: GlcNAc(b1-3)Fuc
Procedure, shortened: as §1

GlcNAc(b1-3)Gal = target: GlcNAc(b1-3)Gal
Procedure, shortened: as §1

[4] = target: GlcNAc(b1-3)Gal(b1-3)GalNAc
Procedure, shortened: as §1

GlcNAc(b1-3)Gal(b1-4)Glc = target: GlcNAc(b1-3)Gal(b1-4)Glc
Procedure, shortened: as §1

[5] = target: GlcNAc(b1-3)Gal(b1-4)GlcNAc
Procedure, shortened: as §1

[6] = target: GlcNAc(b1-3)Gal(b1-4)GlcNAc(b1-2)Man(a1-3)[GlcNAc(b1-3)Gal(b1-4)GlcNAc(b1-2)Man(a1-6)]Man(b1-4)GlcNAc(b1-4)GlcNAc
Procedure, shortened: as §1

[7] = target: GlcNAc(b1-3)Gal(b1-4)GlcNAc(b1-2)Man(a1-3)[GlcNAc(b1-3)Gal(b1-4)GlcNAc(b1-2)Man(a1-6)]Man(b1-4)GlcNAc(b1-4)[Fuc(a1-6)]GlcNAc
Procedure, shortened: as §1

[8] = target: GlcNAc(b1-3)Gal(b1-4)GlcNAc(b1-2)[GlcNAc(b1-3)Gal(b1-4)GlcNAc(b1-6)]Man(a1-6)[GlcNAc(b1-3)Gal(b1-4)GlcNAc(b1-2)Man(a1-3)]Man(b1-4)GlcNAc(b1-4)GlcNAc
Procedure, shortened: as §1

[9] = target: GlcNAc(b1-3)Gal(b1-4)GlcNAc(b1-3)Gal(b1-4)GlcNAc
Procedure, shortened: as §1

[10] = target: GlcNAc(b1-3)Gal(b1-4)GlcNAc(b1-3)Gal(b1-4)GlcNAc(b1-2)Man(a1-3)[GlcNAc(b1-3)Gal(b1-4)GlcNAc(b1-3)Gal(b1-4)GlcNAc(b1-2)Man(a1-6)]Man(b1-4)GlcNAc(b1-4)GlcNAc
Procedure, shortened: as §1

[11] = target: GlcNAc(b1-3)Gal(b1-4)GlcNAc(b1-3)Gal(b1-4)GlcNAc(b1-2)Man(a1-3)[GlcNAc(b1-3)Gal(b1-4)GlcNAc(b1-3)Gal(b1-4)GlcNAc(b1-2)Man(a1-6)]Man(b1-4)GlcNAc(b1-4)[Fuc(a1-6)]GlcNAc
Procedure, shortened: as §1

[12] = target: GlcNAc(b1-3)Gal(b1-4)GlcNAc(b1-3)Gal(b1-4)GlcNAc(b1-2)[GlcNAc(b1-3)Gal(b1-4)GlcNAc(b1-3)Gal(b1-4)GlcNAc(b1-6)]Man(a1-6)[GlcNAc(b1-3)Gal(b1-4)GlcNAc(b1-3)Gal(b1-4)GlcNAc(b1-2)Man(a1-3)]Man(b1-4)GlcNAc(b1-4)[Fuc(a1-6)]GlcNAc
Procedure, shortened: as §1

[13] = target: GlcNAc(b1-3)Gal(b1-4)GlcNAc(b1-3)Gal(b1-4)GlcNAc(b1-3)Gal(b1-4)GlcNAc(b1-2)Man(a1-3)[GlcNAc(b1-3)Gal(b1-4)GlcNAc(b1-3)Gal(b1-4)GlcNAc(b1-3)Gal(b1-4)GlcNAc(b1-2)Man(a1-6)]Man(b1-4)GlcNAc(b1-4)GlcNAc
Procedure, shortened: as §1

[14] = target: GlcNAc(b1-3)Gal(b1-4)GlcNAc(b1-3)Gal(b1-4)GlcNAc(b1-3)Gal(b1-4)GlcNAc(b1-2)Man(a1-3)[GlcNAc(b1-3)Gal(b1-4)GlcNAc(b1-3)Gal(b1-4)GlcNAc(b1-3)Gal(b1-4)GlcNAc(b1-2)Man(a1-6)]Man(b1-4)GlcNAc(b1-4)[Fuc(a1-6)]GlcNAc
Procedure, shortened: as §1

[15] = target: GlcNAc(b1-3)Gal(b1-4)GlcNAc(b1-3)Gal(b1-4)GlcNAc(b1-3)Gal(b1-4)GlcNAc(b1-2)[GlcNAc(b1-3)Gal(b1-4)GlcNAc(b1-3)Gal(b1-4)GlcNAc(b1-3)Gal(b1-4)GlcNAc(b1-6)]Man(a1-6)[GlcNAc(b1-3)Gal(b1-4)GlcNAc(b1-3)Gal(b1-4)GlcNAc(b1-3)Gal(b1-4)GlcNAc(b1-2)Man(a1-3)]Man(b1-4)GlcNAc(b1-4)[Fuc(a1-6)]GlcNAc
Procedure, shortened: as §1

[16] = target: GlcNAc(b1-3)Gal(b1-4)GlcNAc(b1-3)Gal(b1-4)GlcNAc(b1-3)Gal(b1-4)GlcNAc(b1-3)Gal(b1-4)GlcNAc(b1-2)Man(a1-3)[GlcNAc(b1-3)Gal(b1-4)GlcNAc(b1-3)Gal(b1-4)GlcNAc(b1-3)Gal(b1-4)GlcNAc(b1-3)Gal(b1-4)GlcNAc(b1-2)Man(a1-6)]Man(b1-4)GlcNAc(b1-4)GlcNAc
Procedure, shortened: as §1

[17] = target: GlcNAc(b1-3)Gal(b1-4)GlcNAc(b1-3)Gal(b1-4)GlcNAc(b1-3)Gal(b1-4)GlcNAc(b1-3)Gal(b1-4)GlcNAc(b1-2)Man(a1-3)[GlcNAc(b1-3)Gal(b1-4)GlcNAc(b1-3)Gal(b1-4)GlcNAc(b1-3)Gal(b1-4)GlcNAc(b1-3)Gal(b1-4)GlcNAc(b1-2)Man(a1-6)]Man(b1-4)GlcNAc(b1-4)[Fuc(a1-6)]GlcNAc
Procedure, shortened: as §1

[18] = target: GlcNAc(b1-3)Gal(b1-4)GlcNAc(b1-3)Gal(b1-4)GlcNAc(b1-3)Gal(b1-4)GlcNAc(b1-3)Gal(b1-4)GlcNAc(b1-2)[GlcNAc(b1-3)Gal(b1-4)GlcNAc(b1-3)Gal(b1-4)GlcNAc(b1-3)Gal(b1-4)GlcNAc(b1-3)Gal(b1-4)GlcNAc(b1-6)]Man(a1-6)[GlcNAc(b1-3)Gal(b1-4)GlcNAc(b1-3)Gal(b1-4)GlcNAc(b1-3)Gal(b1-4)GlcNAc(b1-3)Gal(b1-4)GlcNAc(b1-2)Man(a1-3)]Man(b1-4)GlcNAc(b1-4)[Fuc(a1-6)]GlcNAc
Procedure, shortened: as §1

[19] = target: GlcNAc(b1-3)Gal(b1-4)GlcNAc(b1-3)Gal(b1-4)GlcNAc(b1-3)GalNAc
Procedure, shortened: as §1

[20] = target: GlcNAc(b1-3)Gal(b1-4)GlcNAc(b1-3)GalNAc
Procedure, shortened: as §1

[21] = target: GlcNAc(b1-3)Gal(b1-4)GlcNAc(b1-3)[GlcNAc(b1-3)Gal(b1-4)GlcNAc(b1-3)]GalNAc
Procedure, shortened: as §1

[22] = target: GlcNAc(b1-3)Gal(b1-4)GlcNAc(b1-6)[Gal(b1-3)]GalNAc
Procedure, shortened: as §1

[23] = target: GlcNAc(b1-3)Gal(b1-4)GlcNAc(b1-6)[GlcNAc(b1-3)Gal(b1-3)]GalNAc
Procedure, shortened: as §1

[24] = target: GlcNAc(b1-3)Gal(b1-4)GlcNAc(b1-6)[GlcNAc(b1-3)]Gal(b1-4)GlcNAc
Procedure, shortened: as §1

GlcNAc(b1-3)GalNAc = target: GlcNAc(b1-3)GalNAc
Procedure, shortened: as §1

GlcNAc(b1-3)Man = target: GlcNAc(b1-3)Man
Procedure, shortened: as §1

[25] = target: GlcNAc(b1-3)[GlcNAc(b1-4)][GlcNAc(b1-6)]GlcNAc
Procedure, shortened: as §1

[26] = target: GlcNAc(b1-3)[GlcNAc(b1-6)]Gal(b1-4)GlcNAc
Procedure, shortened: as §1

[27] = target: GlcNAc(b1-3)[GlcNAc(b1-6)]GalNAc
Procedure, shortened: as §1

[28] = target: GlcNAc(b1-3)[GlcNAc(b1-6)]GlcNAc(b1-4)GlcNAc
Procedure, shortened: as §1

[29] = target: GlcNAc(b1-4)Gal(b1-4)GlcNAc
Procedure, shortened: as §1

GlcNAc(b1-4)GlcNAc = target: GlcNAc(b1-4)GlcNAc
Procedure, shortened: as §1

[30] = target: GlcNAc(b1-4)GlcNAc(b1-4)GlcNAc
Procedure, shortened: as §1

[31] = target: GlcNAc(b1-4)GlcNAc(b1-4)GlcNAc(b1-4)GlcNAc(b1-4)GlcNAc
Procedure, shortened: as §1

[32] = target: GlcNAc(b1-4)GlcNAc(b1-4)GlcNAc(b1-4)GlcNAc(b1-4)GlcNAc(b1-4)GlcNAc
Procedure, shortened: as §1

[33] = target: GlcNAc(b1-4)[GlcNAc(b1-6)]GalNAc
Procedure, shortened: as §1

[34] = target: GlcNAc(b1-6)Gal(b1-4)GlcNAc
Procedure, shortened: as §1

GlcNAc(b1-6)GalNAc = target: GlcNAc(b1-6)GalNAc
Procedure, shortened: as §1

GlcNAc3Prop(b1-4)GlcNAc = target: GlcNAc3Prop(b1-4)GlcNAc
Procedure, shortened: as §1

[35] = target: GlcNAc6S(b1-3)Gal(b1-4)GlcNAc
Procedure, shortened: as §1

Kdn(a2-3)Gal(b1-3)GalNAc = target: Kdn(a2-3)Gal(b1-3)GalNAc
Procedure, shortened: as §1

Kdn(a2-3)Gal(b1-3)GlcNAc = target: Kdn(a2-3)Gal(b1-3)GlcNAc
Procedure, shortened: as §1

B1: GNA (Galanthus nivalis), P30617 (protein)
chain: MAKASLLILAAIFLGVITPSCLSDNILYSGETLSTGEFLNYGSFVFIMQEDCNLVLYDVDKPIWATNTGGLSRSCFLSMQTDGNLVVYNPSNKPIWASNTGGQNGNYVCILQKDRNVVIYGTDRWATGTHTGLVGIPASPPSEKYPTAGKIKLVTAK
glycan array binding signal (z-score) [1]: -0.165 | glycan array binding signal (z-score) [2]: -0.156 | glycan array binding signal (z-score) [3]: -0.185 | glycan array binding signal (z-score) (GlcNAc(b1-3)Fuc): -0.16 | glycan array binding signal (z-score) (GlcNAc(b1-3)Gal): -0.3 | glycan array binding signal (z-score) [4]: -0.184 | glycan array binding signal (z-score) (GlcNAc(b1-3)Gal(b1-4)Glc): -0.212 | glycan array binding signal (z-score) [5]: -0.254 | glycan array binding signal (z-score) [6]: 0.24 | glycan array binding signal (z-score) [7]: 0.56 | glycan array binding signal (z-score) [8]: -0.068 | glycan array binding signal (z-score) [9]: -0.196 | glycan array binding signal (z-score) [10]: -0.01 | glycan array binding signal (z-score) [11]: 0.014 | glycan array binding signal (z-score) [12]: -0.072 | glycan array binding signal (z-score) [13]: -0.12 | glycan array binding signal (z-score) [14]: -0.013 | glycan array binding signal (z-score) [15]: -0.107 | glycan array binding signal (z-score) [16]: -0.108 | glycan array binding signal (z-score) [17]: -0.075 | glycan array binding signal (z-score) [18]: -0.126 | glycan array binding signal (z-score) [19]: -0.15 | glycan array binding signal (z-score) [20]: -0.187 | glycan array binding signal (z-score) [21]: -0.172 | glycan array binding signal (z-score) [22]: -0.17 | glycan array binding signal (z-score) [23]: -0.148 | glycan array binding signal (z-score) [24]: -0.158 | glycan array binding signal (z-score) (GlcNAc(b1-3)GalNAc): -0.197 | glycan array binding signal (z-score) (GlcNAc(b1-3)Man): -0.199 | glycan array binding signal (z-score) [25]: -0.159 | glycan array binding signal (z-score) [26]: -0.231 | glycan array binding signal (z-score) [27]: -0.199 | glycan array binding signal (z-score) [28]: -0.208 | glycan array binding signal (z-score) [29]: -0.245 | glycan array binding signal (z-score) (GlcNAc(b1-4)GlcNAc): -0.229 | glycan array binding signal (z-score) [30]: -0.208 | glycan array binding signal (z-score) [31]: -0.212 | glycan array binding signal (z-score) [32]: -0.21 | glycan array binding signal (z-score) [33]: -0.286 | glycan array binding signal (z-score) [34]: -0.198 | glycan array binding signal (z-score) (GlcNAc(b1-6)GalNAc): -0.176 | glycan array binding signal (z-score) (GlcNAc3Prop(b1-4)GlcNAc): -0.486 | glycan array binding signal (z-score) [35]: -0.198 | glycan array binding signal (z-score) (Kdn(a2-3)Gal(b1-3)GalNAc): -0.146 | glycan array binding signal (z-score) (Kdn(a2-3)Gal(b1-3)GlcNAc): -0.112
